Source: the supplement of paper PMC10126150
Sequences with one replicate were seen in a single cluster, so their values are uncertain.

System: ATP
Assay: switch fluorescence ratio, 500 uM ATP over buffer (Cy3 cluster intensity, sum of 5 cycles each) (fold (ratio)); higher = stronger signal-on switching upon ATP binding; sequences stand for … in TCGTCGGCAGCGTCAGATGTGTATAAGAGACAGTTTTTTTTTTTTTTTTTTTTTTTTT…TC
Conditions: aptamer strand: ATP DNA aptamer (quencher-CACCTGGGGGAGTATTGCGGAGGAAGG + anchor), 100 nM annealed; ATP concentration: 500 uM; one replicate
Method in brief: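 Values give the fluorescence ratio for each switch-domain sequence, averaged from per-cluster ratios of summed target-cycle to summed buffer-cycle Cy3 intensity. The Cy3-labelled switching-strand clusters sat on a modified Illumina MiSeq flow-cell, were annealed to 100 nM quencher-labelled ATP aptamer, and were imaged in selection buffer, then after 15 min with 500 uM ATP at 22 °C. Five cycles ran with NaOH stripping and re-annealing between them, and clusters outside 100-1000 RFU were excluded.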
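Further: ATP exposure 15 min at 22 °C before imaging.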

Sequence | switch fluorescence ratio
GAGTGCACGG | 1.03
CTTGGAGAGC | 0.982
GGAGTTATCA | 1.02
CCAGCGGTCA | 1.04
GCATAGAGG | 0.975
GGTGCTATAA | 1.09
CAATTCTGG | 0.985
AGGGCATCTG | 1
ACGAAAAACG | 1.02
CAGTTAGCTG | 1.03
GCGATTACGG | 1.04
ATCGCGTACG | 1.05
ACCCAGAAG | 1.04
GGGCTATCTC | 1.06
ACAGGTACGA | 1.06
ATAAATGCCA | 0.983
ATATTATCGT | 1
AGGTTATGCG | 1.01
CATTCCACCG | 2.33
TGCGTATTTG | 0.98
GGACGTCGGG | 0.991
ACATGAATAT | 1.08
GTTTTAAGG | 0.967

Sequence | switch fluorescence ratio
AAAGTGCGGG | 0.982
CGGGTCAATA | 1.62
AAGATGTCCA | 1.02
GCGAGTAATG | 1.04
GGGGAAAGAC | 1.1
TCATTTACGG | 0.981
AAGGACTCGG | 0.982
CAGTTGTAG | 1.05
AGAACGCGTG | 1
TGACAGAATA | 1.02
AAAATTGCCC | 0.963
ATGGGATATA | 0.933
ACCTCAACCC | 1.18
ATACGCGCAA | 1.72
TAACTGAATC | 1.06
CTAGGCG | 1
CCCGAAAAAA | 3.24
CTTCTTCCGA | 3.87
TACCTACACA | 1.19
ACTTGCGCGC | 1.02
TCAAAGATCT | 0.982
GGTGAGATTG | 1
TAGACGGTGC | 1.03

Sequence | switch fluorescence ratio
CCATTACTA | 1
AGGATGGCAT | 1
ACCCGCGGTG | 1.11
AGTTGGTGGC | 0.994
AGTTTATAGG | 1.04
AAGACCCGTC | 0.898
AGGAGTCCTT | 0.983
TGATTAATTC | 1
AGCGTTGGTC | 1.03
CAAAGTATGG | 0.967
TACGCCTATA | 1.05
TCGCGAATCC | 1.14
ACCAGTTGG | 0.995
TCTCAGGGTT | 1.04
GCATGCTCAT | 1.03
CATGCGCTTT | 1.37
TTTAGGTATA | 0.986
TAGGTGGGT | 1.01
AAAGGTCGAA | 0.994
GTCTACCAG | 1
CGATTGTTCC | 1.07
ACTCGTAACC | 1.09
TCACGGGTGT | 1.46

Sequence | switch fluorescence ratio
AGTTAGTGCA | 0.974
ATCCCAGGGA | 1.1
TCACGGTGGG | 0.996
TGAGACTCAT | 0.972
TCTGACCCAT | 1.06
TTTGTACGGA | 1.03
GTTGCGCTGA | 1.05
CAAGGGGTTA | 0.956
CTGCATCAGG | 1.27
GATCCACTCA | 1.05
GGTCGAATAC | 2.42
TTGCAGGCAG | 1
TTGAGTCACC | 1.01
AGTTAAGTCG | 1.04
CACGACAGTA | 1.09
GTAGGGAGCC | 1.04
CCGATGATCT | 1.11
ATCGCACCCG | 1.03
ATTAAAGAAT | 0.994
CCGTCCTGGC | 0.865
ATGGCACTGA | 1.04
CAGCTGGTTG | 0.987
CACAGGAACC | 1.05

Sequence | switch fluorescence ratio
TAGTGGTAGC | 0.998
GGAAGGGGAC | 0.997
TATGTACGG | 1.07
ATAAGTAGGA | 1.02
ATATCAGCAC | 1.03
TATCGAAACT | 1
ATACATGTTG | 1.07
GGGTATAAGC | 1.02
ACATTGCCTA | 0.974
CACGTCGCGA | 0.985
GGTGCTATTC | 1.02
CAGCTAGGTC | 1.01
ATGATCCATT | 1
TGTGTGAATT | 1.71
TCACATAGGC | 0.965
ACTATCTCCT | 1.07
TTTGATCTAC | 0.997
GATCAATTTT | 0.96
TGATGTGATC | 1.05
AATCTGGGTC | 0.975
AGATAGGTAC | 1.01
AACGCTTAAT | 1.02
TGTGCGTTGG | 1.05

Sequence | switch fluorescence ratio
TTGGACTG | 0.998
GCGCGTGGTG | 1.02
AGTGGTCGTG | 1.02
TCAAGACGAT | 1
AATCTCCGAC | 1.7
GAACCGGCTG | 1.04
ACGCACCATC | 1.54
TGACGGTAAG | 1.02
CAGCACTTTC | 1.49
GAGGCAACGG | 1
AGAATGTTGT | 1
GAGAATTAC | 1.01
AATAGAACGA | 1.03
AACTCCGGAG | 0.976
TAAGAATAGG | 0.953
GCAAGAGCCA | 1.01
TTTACCCTCT | 1.02
CGTCGGCGGC | 1.06
GGGATAATGC | 0.981
TCAGGGTAAC | 0.981
GCGGCTTTTT | 0.974
TTTACTATCA | 0.98
TAGCCCGTAT | 1.1

Sequence | switch fluorescence ratio
CTCGTGTGAT | 0.994
CGCCGCTAAG | 2.94
TGGTTACTTA | 1.01
CAAGTTACCA | 1.18
CACAACAGTT | 0.97
TGGTTGCATG | 0.993
TGAAGATTAG | 1.04
GCTATCTCTG | 0.977
TTTGCGTAAA | 0.962
TGAAGGGAAT | 1.05
AGTTTAACA | 0.997
CCGCAGATCA | 2.44
GCTCTCATGC | 1.07
TGTGTCAAGG | 0.99
TTCCCGTTAG | 1.38
TCTTGGACAC | 0.998
GTGAATAGGC | 0.99
ACAAAGAACT | 1.03
GGACAGTTTA | 0.975
